From paper PMC11345399 (The Journal of Biological Chemistry, 2024)

Assays:
HPIV-3 RdRp = HPIV-3 RdRp (Human parainfluenza 3 virus, UniProt P12577)
HMPV RdRp = HMPV RdRp (Human metapneumovirus, UniProt Q6WB93)
RSV RdRp = RSV RdRp (Human respiratory syncytial virus A, UniProt P28887)
MERS-CoV RdRp = MERS-CoV RdRp (Middle East respiratory syndrome-related coronavirus, UniProt K9N7C7)
PIV-5 RdRp = PIV-5 RdRp (Parainfluenza virus 5, UniProt Q88434)
UniProt Q88434, sequence (Q88434 whole entry): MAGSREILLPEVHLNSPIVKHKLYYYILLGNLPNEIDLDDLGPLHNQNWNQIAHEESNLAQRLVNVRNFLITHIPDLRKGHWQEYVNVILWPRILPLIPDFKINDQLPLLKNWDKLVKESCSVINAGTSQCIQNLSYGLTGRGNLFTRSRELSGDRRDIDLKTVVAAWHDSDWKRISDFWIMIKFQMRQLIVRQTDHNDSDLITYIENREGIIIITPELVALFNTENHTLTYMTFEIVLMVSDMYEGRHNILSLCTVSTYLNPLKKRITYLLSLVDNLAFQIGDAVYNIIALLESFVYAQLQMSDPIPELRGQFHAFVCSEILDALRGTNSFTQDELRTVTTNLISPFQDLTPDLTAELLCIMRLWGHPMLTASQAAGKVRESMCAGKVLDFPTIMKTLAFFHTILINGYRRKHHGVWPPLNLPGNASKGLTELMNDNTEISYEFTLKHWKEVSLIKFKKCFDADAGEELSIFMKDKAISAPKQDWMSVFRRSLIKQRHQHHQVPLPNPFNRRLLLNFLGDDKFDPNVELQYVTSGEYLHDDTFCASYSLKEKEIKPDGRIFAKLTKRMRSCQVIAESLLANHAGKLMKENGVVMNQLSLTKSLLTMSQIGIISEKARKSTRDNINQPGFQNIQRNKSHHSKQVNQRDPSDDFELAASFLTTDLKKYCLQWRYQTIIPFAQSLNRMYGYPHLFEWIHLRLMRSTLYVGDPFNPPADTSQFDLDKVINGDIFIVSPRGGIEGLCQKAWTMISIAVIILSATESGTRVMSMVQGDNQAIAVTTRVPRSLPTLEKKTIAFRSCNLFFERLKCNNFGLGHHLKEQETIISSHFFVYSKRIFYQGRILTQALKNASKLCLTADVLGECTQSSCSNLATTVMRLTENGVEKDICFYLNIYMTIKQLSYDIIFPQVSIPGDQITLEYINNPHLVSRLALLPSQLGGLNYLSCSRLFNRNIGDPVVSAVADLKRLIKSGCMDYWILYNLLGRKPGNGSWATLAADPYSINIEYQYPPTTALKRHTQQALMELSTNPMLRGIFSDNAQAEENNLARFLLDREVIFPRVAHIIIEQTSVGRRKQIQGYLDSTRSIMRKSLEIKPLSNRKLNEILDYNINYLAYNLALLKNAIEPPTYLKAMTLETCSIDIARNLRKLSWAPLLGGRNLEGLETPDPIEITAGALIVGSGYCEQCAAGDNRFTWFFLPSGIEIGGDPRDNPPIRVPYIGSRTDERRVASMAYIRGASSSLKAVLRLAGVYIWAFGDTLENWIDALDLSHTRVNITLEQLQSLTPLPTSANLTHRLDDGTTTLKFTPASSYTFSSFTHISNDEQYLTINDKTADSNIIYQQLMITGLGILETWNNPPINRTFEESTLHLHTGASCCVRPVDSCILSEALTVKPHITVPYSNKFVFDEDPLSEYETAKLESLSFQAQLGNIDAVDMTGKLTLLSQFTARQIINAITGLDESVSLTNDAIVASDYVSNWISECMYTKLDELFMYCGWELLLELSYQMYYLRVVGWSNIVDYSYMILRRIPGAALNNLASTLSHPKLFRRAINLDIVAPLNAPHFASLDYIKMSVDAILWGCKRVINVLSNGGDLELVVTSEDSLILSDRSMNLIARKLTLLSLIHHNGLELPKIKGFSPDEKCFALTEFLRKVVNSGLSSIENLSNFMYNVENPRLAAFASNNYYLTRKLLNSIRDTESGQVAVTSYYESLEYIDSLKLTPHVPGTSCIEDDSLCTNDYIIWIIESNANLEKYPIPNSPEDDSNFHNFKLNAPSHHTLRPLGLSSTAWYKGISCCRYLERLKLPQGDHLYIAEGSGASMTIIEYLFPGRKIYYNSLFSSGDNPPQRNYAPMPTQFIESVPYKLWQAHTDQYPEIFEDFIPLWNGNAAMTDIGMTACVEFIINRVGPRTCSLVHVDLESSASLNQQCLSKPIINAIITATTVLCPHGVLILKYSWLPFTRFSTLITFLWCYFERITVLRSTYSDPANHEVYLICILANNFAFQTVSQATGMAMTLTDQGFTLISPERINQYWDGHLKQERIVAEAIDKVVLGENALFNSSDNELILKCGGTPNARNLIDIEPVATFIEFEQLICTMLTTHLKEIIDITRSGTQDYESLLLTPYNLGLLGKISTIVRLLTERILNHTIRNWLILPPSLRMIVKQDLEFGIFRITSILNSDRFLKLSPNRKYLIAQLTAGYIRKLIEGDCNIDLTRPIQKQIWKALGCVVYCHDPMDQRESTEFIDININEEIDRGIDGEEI
UniProt Q88434, sequence (P11208 whole entry, further chain): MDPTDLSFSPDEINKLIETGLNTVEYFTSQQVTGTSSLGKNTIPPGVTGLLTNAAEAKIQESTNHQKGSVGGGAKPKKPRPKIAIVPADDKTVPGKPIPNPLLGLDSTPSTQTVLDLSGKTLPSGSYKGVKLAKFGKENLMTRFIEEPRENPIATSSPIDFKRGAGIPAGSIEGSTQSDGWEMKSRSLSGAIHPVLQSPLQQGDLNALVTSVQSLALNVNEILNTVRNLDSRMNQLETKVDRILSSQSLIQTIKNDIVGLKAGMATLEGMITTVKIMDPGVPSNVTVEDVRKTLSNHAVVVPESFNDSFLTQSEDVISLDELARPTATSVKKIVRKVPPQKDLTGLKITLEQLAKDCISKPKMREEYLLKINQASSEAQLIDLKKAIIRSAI

UniProt Q6WB93, sequence (Q6WB93 whole entry): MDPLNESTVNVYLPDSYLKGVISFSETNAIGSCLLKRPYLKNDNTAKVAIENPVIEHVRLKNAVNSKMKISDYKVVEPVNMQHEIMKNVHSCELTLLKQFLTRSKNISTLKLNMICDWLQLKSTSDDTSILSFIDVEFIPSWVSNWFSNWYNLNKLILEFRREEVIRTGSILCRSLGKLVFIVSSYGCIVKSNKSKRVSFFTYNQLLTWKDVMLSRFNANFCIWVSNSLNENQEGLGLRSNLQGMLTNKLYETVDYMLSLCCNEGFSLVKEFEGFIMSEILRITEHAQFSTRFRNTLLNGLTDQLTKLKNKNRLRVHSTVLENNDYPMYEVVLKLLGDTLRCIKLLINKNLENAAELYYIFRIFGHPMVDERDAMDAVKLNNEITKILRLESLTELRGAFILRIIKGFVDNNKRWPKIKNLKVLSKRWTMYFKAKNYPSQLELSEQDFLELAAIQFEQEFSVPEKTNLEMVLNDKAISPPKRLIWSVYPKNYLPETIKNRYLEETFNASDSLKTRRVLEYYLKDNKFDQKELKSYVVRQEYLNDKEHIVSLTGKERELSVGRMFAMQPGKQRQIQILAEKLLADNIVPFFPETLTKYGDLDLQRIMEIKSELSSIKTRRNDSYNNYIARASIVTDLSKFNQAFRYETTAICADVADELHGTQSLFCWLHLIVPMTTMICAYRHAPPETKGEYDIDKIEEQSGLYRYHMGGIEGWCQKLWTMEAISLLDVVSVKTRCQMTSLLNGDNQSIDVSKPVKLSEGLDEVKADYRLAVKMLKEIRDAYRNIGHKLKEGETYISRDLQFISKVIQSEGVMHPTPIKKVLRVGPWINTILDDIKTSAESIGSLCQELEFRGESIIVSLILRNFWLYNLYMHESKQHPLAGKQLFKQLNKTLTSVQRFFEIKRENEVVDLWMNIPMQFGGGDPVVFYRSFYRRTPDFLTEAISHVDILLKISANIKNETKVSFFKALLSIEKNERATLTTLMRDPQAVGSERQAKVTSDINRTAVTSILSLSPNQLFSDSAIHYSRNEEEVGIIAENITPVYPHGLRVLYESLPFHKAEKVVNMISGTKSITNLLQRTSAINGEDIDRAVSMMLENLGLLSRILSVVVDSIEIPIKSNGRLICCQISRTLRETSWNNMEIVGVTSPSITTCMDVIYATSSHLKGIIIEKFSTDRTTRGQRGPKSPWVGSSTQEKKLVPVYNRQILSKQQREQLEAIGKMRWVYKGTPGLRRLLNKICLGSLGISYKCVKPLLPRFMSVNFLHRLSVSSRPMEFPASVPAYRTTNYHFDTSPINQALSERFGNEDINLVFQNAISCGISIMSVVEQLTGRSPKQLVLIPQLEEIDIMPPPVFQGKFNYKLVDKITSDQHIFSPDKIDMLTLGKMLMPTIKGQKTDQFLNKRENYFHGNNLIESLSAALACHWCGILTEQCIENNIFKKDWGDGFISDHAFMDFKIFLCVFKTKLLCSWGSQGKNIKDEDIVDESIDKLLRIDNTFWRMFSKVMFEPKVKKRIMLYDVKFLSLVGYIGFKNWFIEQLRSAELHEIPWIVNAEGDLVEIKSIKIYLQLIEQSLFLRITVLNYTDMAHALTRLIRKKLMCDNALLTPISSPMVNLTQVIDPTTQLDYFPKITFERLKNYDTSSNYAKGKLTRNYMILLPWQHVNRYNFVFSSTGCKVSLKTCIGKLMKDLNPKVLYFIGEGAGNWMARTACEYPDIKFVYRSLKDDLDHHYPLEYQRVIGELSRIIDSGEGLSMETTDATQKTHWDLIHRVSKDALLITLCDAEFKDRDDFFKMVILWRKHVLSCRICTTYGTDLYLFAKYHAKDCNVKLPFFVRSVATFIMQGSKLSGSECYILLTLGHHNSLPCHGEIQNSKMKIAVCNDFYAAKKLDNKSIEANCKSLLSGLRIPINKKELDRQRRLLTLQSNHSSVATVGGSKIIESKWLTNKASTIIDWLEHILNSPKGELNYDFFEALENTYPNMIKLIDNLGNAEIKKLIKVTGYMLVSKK
UniProt Q6WB93, sequence (Q8B9Q8 whole entry, further chain): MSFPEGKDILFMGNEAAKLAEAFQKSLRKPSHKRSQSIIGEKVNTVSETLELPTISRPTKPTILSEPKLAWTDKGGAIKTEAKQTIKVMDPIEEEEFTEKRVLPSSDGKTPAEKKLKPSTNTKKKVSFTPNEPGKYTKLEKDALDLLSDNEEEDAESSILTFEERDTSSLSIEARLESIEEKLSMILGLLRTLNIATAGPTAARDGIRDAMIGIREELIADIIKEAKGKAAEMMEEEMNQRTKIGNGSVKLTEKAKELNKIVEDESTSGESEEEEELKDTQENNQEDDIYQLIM

| SMILES | Inhibition (fold) of subsequent nucleotide incorporation, ratio of Vmax/Km vs AMP-terminated primer (HPIV-3 RdRp) | Inhibition (fold) of subsequent nucleotide incorporation, ratio of Vmax/Km vs AMP-terminated primer (HMPV RdRp) | Inhibition (fold) of subsequent nucleotide incorporation, ratio of Vmax/Km vs AMP-terminated primer (RSV RdRp) | Inhibition (fold) of subsequent nucleotide incorporation, ratio of Vmax/Km vs AMP-terminated primer (MERS-CoV RdRp) | Inhibition (fold) of subsequent nucleotide incorporation, ratio of Vmax/Km vs AMP-terminated primer (PIV-5 RdRp) |
| --- | --- | --- | --- | --- | --- |
| N#C[C@]1(COP(=O)(O)OP(=O)(O)OP(=O)(O)O)O[C@@H](c2ccc3c(N)ncnn23)[C@H](O)[C@@H]1O [GS-646939] | 3,334 fold | 517 fold | 1,048 fold | 17,405 fold | 4,190 fold |
| N#C[C@@]1(c2ccc3c(N)ncnn23)O[C@H](COP(=O)(O)OP(=O)(O)OP(=O)(O)O)[C@@H](O)[C@H]1O [GS-443902] | 1.01 fold | 4.77 fold | – | 0.59 fold | 0.40 fold |
